{"source": "the RNAGym collection of RNA variant scans (doi:10.7554/elife.90254)", "parents": {"B1": {"name": "LINE1-mini (parent)", "chain": "GGCAGAGCUCAACACAGCGUGGCAAAGUGGCUGUGGCUAGACUGCC"}}, "note": "Read counts are not given, so values of variants with three or more changes are uncertain."}
{"variants_of": "B1", "assay": "self-cleavage, relative activity (ratio to wild type); higher = more cleavage; in vitro, sequencing; the parent is a self-cleaving ribozyme"}
{"variant": "GGCAGAGCUCAACACAGCGUGGCUAAAGGGCUGUGGCGAGACUGCC", "note": "[A24U G27A U28G U38G]", "self-cleavage": 0.03}
{"variant": "GGCAGAGCUCAACACAGCGUGGCAAAGCGGCUGUAGCUAGACUGUC", "note": "[U28C G35A C45U]", "self-cleavage": 0.36}
{"variant": "GGCAGAGCUCAACACAGCGUGGCAAAGUGGAUGGGGCUAGACAGCC", "note": "[C31A U34G U43A]", "self-cleavage": 0.01}
{"variant": "GGCAAUGAUAAACACAGCGUGGCAAAGUGGCUGUGGCUAGACUGCC", "note": "[G5A A6U C8A C10A]", "self-cleavage": 0.06}
{"variant": "GGCAGAGCUCAACACAGCGUGGCAAAGUGCCUGUGGCUAGACUGGG", "note": "[G30C C45G C46G]", "self-cleavage": 0.02}
{"variant": "GCCAGAGCUCAACACCGCGUGGCAAAGUGGCUGUGCCUAGACUGCC", "note": "[G2C A16C G36C]", "self-cleavage": 0.09}
{"variant": "GGCAGAGUCCAACAAACCCUGGCAAAGUGGCUGGGGCUAGACUGCC", "note": "[C8U U9C C15A G17C G19C U34G]", "self-cleavage": 0}
{"variant": "GGCAAAGCUUAACACAGCGUGGCAAAGUGACUGUGGCUAGACUGCC", "note": "[G5A C10U G30A]", "self-cleavage": 0.07}
{"variant": "GGCCGAGCUAAACACAGAGUGGCACAGUGGCUGUGACUAGACUGCC", "note": "[A4C C10A C18A A25C G36A]", "self-cleavage": 0.02}
{"variant": "GGCUGAGCUCAACACACCGUGGCAAAGUGGAUGUGGCUAGACUGCC", "note": "[A4U G17C C31A]", "self-cleavage": 0.12}
{"variant": "GCCAGAGCUCAACACAGCGUGGGAGAGUGGCUGGGGCUAGACUGCC", "note": "[G2C C23G A25G U34G]", "self-cleavage": 0.02}
{"variant": "UGCAGAGCUCAACACAGCGUGGCAAAGUGGUUGUGGAUAGACUGCC", "note": "[G1U C31U C37A]", "self-cleavage": 0.31}
{"variant": "GGCAGAGCUCAACUCAGGGUGGCAAAGUGGCUGUGGCUAGACGGCC", "note": "[A14U C18G U43G]", "self-cleavage": 0.04}
{"variant": "GGCAGCGCUAAACACAGCGUGGCAAAGUGGCUGUGCCCAGACUGCC", "note": "[A6C C10A G36C U38C]", "self-cleavage": 0.02}
{"variant": "UGCAGAGCUCUACACAGAGUGGCAAAGUGGCUGUGGCUAGAGUGCC", "note": "[G1U A11U C18A C42G]", "self-cleavage": 0.01}
{"variant": "GGCAGAGCUAAACACAGCGUGGUAAAGUGGCUGUGUCUAGACUGCC", "note": "[C10A C23U G36U]", "self-cleavage": 0.04}
{"variant": "GCCAGAGCUCAACACAGCGAGGUAAAGUGGCUGUGGAUAUACUGCC", "note": "[G2C U20A C23U C37A G40U]", "self-cleavage": 0.04}
{"variant": "GGCAGAGCCCAACAGAGCGUGGCAACGUGGCUGUGGCUAGACUGCC", "note": "[U9C C15G A26C]", "self-cleavage": 0.02}
{"variant": "GGCAGAGCUCGACACAGCGUGGCAAAGUGUCUUUGGCUUGACUGCC", "note": "[A11G G30U G33U A39U]", "self-cleavage": 0.01}
{"variant": "CGCAGAGCUCAACACAGCGUGGCAAAGUGGCUGGGGCUAGACCGCC", "note": "[G1C U34G U43C]", "self-cleavage": 0.03}
{"variant": "GGCAGAGCUAAACAGUGCGUGGCAAAGUGGCUGUGGGUAGACUGCC", "note": "[C10A C15G A16U C37G]", "self-cleavage": 0.01}
{"variant": "AGCAGAGCUCAACACAGCGUGGCAAAGAGGCUGUGGCUAGAUUGCC", "note": "[G1A U28A C42U]", "self-cleavage": 0.43}
{"variant": "GGCACAUCUCAACACAGCGUGGCAAACUGGCUGUGGCUAGACUGCC", "note": "[G5C G7U G27C]", "self-cleavage": 0.04}
{"variant": "GGCCGAGCUCAACACAGCGUGCCAAAGUGUCUGUGGCUAGACUGCC", "note": "[A4C G22C G30U]", "self-cleavage": 0.06}
{"variant": "GGCCGAGCUCAACACAGCGUCGGAAAGUGGCUGUGGCUAUACUGCC", "note": "[A4C G21C C23G G40U]", "self-cleavage": 0.13}
{"variant": "GGCAUAGCUCAACACAGAGUGGCAACGUGGCUGUGGCUAGACUGAC", "note": "[G5U C18A A26C C45A]", "self-cleavage": 0.04}
{"variant": "GGAAGAGCUUAACACAGCGUGGCGAAGUGGCUGUGGCUAUACUGCC", "note": "[C3A C10U A24G G40U]", "self-cleavage": 0.02}
{"variant": "GUCAGAACUCAACAAAGCGUGGCAAGUUGGCUGUGGCUAGACUGCC", "note": "[G2U G7A C15A A26G G27U]", "self-cleavage": 0.11}
{"variant": "GGCAGACCUCAGCACAGCUUGGCAACGUGGCUGUGGCUAGACUGCC", "note": "[G7C A12G G19U A26C]", "self-cleavage": 0.02}
{"variant": "CGCAGAGCUCAACACAGCGUGGCAAAGUGCCUGUGUCUAGACUGCC", "note": "[G1C G30C G36U]", "self-cleavage": 0.02}
{"variant": "GGCAGAGCUCAACGUAGCGUGGCAAAGUCGCUGCGCCUAGACUGCC", "note": "[A14G C15U G29C U34C G36C]", "self-cleavage": 0.05}
{"variant": "GGCAUAGCUCAACACAGCGUGGCAAAAUGCCUGUGGCUAGACUGCC", "note": "[G5U G27A G30C]", "self-cleavage": 0.06}
{"variant": "GGCAGAGGUCAAGACAGCGUGGGAAAGUGGCUGUGGCUAGACUGCC", "note": "[C8G C13G C23G]", "self-cleavage": 0.01}
{"variant": "GGCAGGGCUCAACACAGCGUGGCAAAAUGGCUCUGGCUAGACUGCC", "note": "[A6G G27A G33C]", "self-cleavage": 0.03}
{"variant": "GGCAGAGCUCAACACAGCCUGGCAAAGUGGUUGUGGCUAAACUACU", "note": "[G19C C31U G40A G44A C46U]", "self-cleavage": 0.03}
{"variant": "GGCUGAGCUCAAUACAGCGUGGCAAAGUGGCUGUGGCUAUACUGCC", "note": "[A4U C13U G40U]", "self-cleavage": 0.04}
{"variant": "GGCAGAGCACAACACACCGUGGCAAAGUGGCUGGGGCGAGACUGCC", "note": "[U9A G17C U34G U38G]", "self-cleavage": 0.22}
{"variant": "GGCAUAGCUCGACACAGCGUGGCAAAGUGGCUGAGGCUAUACUGCC", "note": "[G5U A11G U34A G40U]", "self-cleavage": 0.01}
{"variant": "GGUAGAGCCCAACACGGCGUGGCAAAGUGGCUGUGGCUAGACUGCC", "note": "[C3U U9C A16G]", "self-cleavage": 0.98}
{"variant": "GGCAGAUGUCAACGCAGAGUGGCAAAGUGGCAGUGGCUACACUGCC", "note": "[G7U C8G A14G C18A U32A G40C]", "self-cleavage": 0.02}
{"variant": "GGCAGAGCUCAACAUAGCGUGGCAAAGUGGCUGUGGAUAGACAUCC", "note": "[C15U C37A U43A G44U]", "self-cleavage": 0.13}
{"variant": "GGAAGAGCUCAACACCGUGUGGCAAAUUGGCUGUGGCUAGGCUGCC", "note": "[C3A A16C C18U G27U A41G]", "self-cleavage": 0.06}
{"variant": "GGCAGAGCUCAACUCAGCGUGGCAAAGUAGCUGUGGCUGGACUGCC", "note": "[A14U G29A A39G]", "self-cleavage": 0.04}
{"variant": "GGCAGAGCUCAACACAGCGUGGCAUACUGGUUGUGGCUCGACUGCC", "note": "[A25U G27C C31U A39C]", "self-cleavage": 0.04}
{"variant": "GGCAGAGCCAAACACAGCGUGGCAAAGUGGCUGUGGCGAGACUGCC", "note": "[U9C C10A U38G]", "self-cleavage": 0.02}
{"variant": "GGCAGAGCUCAACACAGAGUGGCAAAGUGGCUGUGGCAAGAUUGCC", "note": "[C18A U38A C42U]", "self-cleavage": 0.06}
{"variant": "GGCAGAGCCCAACACAGCCUGGCAAAGUGGCUGUGGCUAGACUGAC", "note": "[U9C G19C C45A]", "self-cleavage": 0.01}
{"variant": "GCCAGAGCUCAACACAGCGUGGCAAAGUGGCGUUGGCUAGACUGCC", "note": "[G2C U32G G33U]", "self-cleavage": 0.11}
{"variant": "GGCAGAGCUAAACACAGCGUGGCAAAUUGGCUGUGGCUAGACCGCC", "note": "[C10A G27U U43C]", "self-cleavage": 0.02}
{"variant": "GGCAGAGCACAGCACAGGGUGGCAAAGUGGCUGUGGCUAGACUGCC", "note": "[U9A A12G C18G]", "self-cleavage": 0.01}
{"variant": "GGCAAAGAUCAACACCGCGUGACAAAGUGGCUGUGGCUAGACUGCC", "note": "[G5A C8A A16C G22A]", "self-cleavage": 0.24}
{"variant": "GGCAUAGCUCAACGCAGCGUGGCAAAGUGGCUGCGGCUAGACUGCC", "note": "[G5U A14G U34C]", "self-cleavage": 0.28}
{"variant": "GGCAGAGCUCAACACAGAGGGGCAAAGUUGCUGUGGCUAGACUGCC", "note": "[C18A U20G G29U]", "self-cleavage": 1.55}
{"variant": "GGAGGAGCUCAACACAGCGUGGCAAAGUGGCUGUCGCUAGACUGAC", "note": "[C3A A4G G35C C45A]", "self-cleavage": 0.11}
{"variant": "GGCAGAGCUAAACACACCGUGGCAAAGCGGCUGUGGCUAGACUGGC", "note": "[C10A G17C U28C C45G]", "self-cleavage": 0.52}
{"variant": "GUCAGAGCUCAACACUGCGUGGCAAAGUGGCUGUGGUUAGACUGUC", "note": "[G2U A16U C37U C45U]", "self-cleavage": 0.07}
